This passage reports survival results from PubChem BioAssay AID463173 (ICCB-Longwood Screening Facility, Harvard Medical School, 2010).

Out of some 52,000 compounds screened, about 1,700 (3.3%) were called active. Cut-off read from the data, not from the text of the source: active = survival mostly below about 52% (no sharp cut-off); inactive = mostly above about 56%. The list shows a part of the results.

The experiment relates to Wild type. Description: S. aureus survival, RN4220 and DeltatarO strains – OD600, teichoic acid synthesis inhibitors, primary screen (AID 463173). The settings on record: S. aureus RN4220 wild type/DeltatarO growth, OD600, 18 h, hits give low values, screened at 18.75 µg/mL (by protocol).
As for `Cc1ccc(C(=O)Nc2nnc(SCc3cc(=O)n4ccc(C)cc4n3)s2)cc1`, the survival was inactive: 129%. Turning to `CCCNS(=O)(=O)c1ccc(OCC(=O)NCc2ccccn2)cc1`, the survival was inactive: 122%.

Consider `CCC(=O)N1c2nc(C(C)C)nn2C2(CCCCC2)[C@@H]2CCCC[C@@H]21`, for which the survival is inactive: 103%. Consider `Cc1cc(C)cc(NC(=O)Cn2nnc(C(=O)NCc3ccco3)c2N)c1`, for which the survival is inactive: 87%. The same measure for `O=C(CN1C(=O)COc2ccc(S(=O)(=O)N3CCCCCC3)cc21)N1CCN(c2ccccc2)CC1`: inactive: 86%; for `COc1ccc(Cl)cc1NC(=O)C(C)N1Cc2ccccc2C1=O` (centres undefined): inactive: 85%. With `COCCNC(=O)Cn1c(=O)n(-c2ccc(C)c(C)c2)c(=O)c2c3c(sc21)CCCCC3`, the survival is inactive: 84%.

On to `CCOC(=O)c1cccc(NC(=O)C2CCN(c3nnc(C)c4c(C)n(-c5ccccc5)nc34)CC2)c1`, for which the survival was inactive: 77%. Take `CCOc1cc(CNC(=O)C(NS(=O)(=O)c2cccs2)C(C)C)cc(OCC)c1OCC` (centres undefined): the survival was inactive: 65%. Take `O=C(Cn1c(SCc2cccc(F)c2)nc2ccncc21)Nc1ccc(Cl)cc1F`: the survival is inactive: 50%. Consider `COc1ccc(NCc2cccn2-c2nnc(N3CCOCC3)s2)c(OC)c1`, for which the survival is inactive: 70%. Under `COc1ccc(N2CCN(S(=O)(=O)CCNC(=O)Cc3ccc(-c4ccccc4)cc3)CC2)cc1` stands inactive: 115%; under `COc1ccc(C(=O)Nc2ccc3nc(N4CCCCC4)cc(C)c3c2)c(OC)c1`, inactive: 75%.

As for `Cc1cccc(C)c1NC(=O)CSc1nnc(C)n1Cc1ccccc1`, the survival was inactive: 104%. The same measure for `Cc1cn2c(=O)cc(COc3cccc(NC(=O)c4cccc(F)c4)c3)nc2s1`: inactive: 93%.

With `CCOC(=O)c1c(NC(C)=O)c2c3c(sc2n1Cc1cccc(Cl)c1)CCCC3`, the survival is inactive: 101%. The same measure for `Cc1ccc(C(CC(=O)Nc2ccc(C)cc2C)N2Cc3ccccc3C2=O)cc1` (centres undefined): inactive: 110%; for `CCOc1ccccc1CNC(=O)c1cccc(NC(=O)c2nsc3ccccc23)c1`: inactive: 63%.

`Cc1cc(C)c(S(=O)(=O)Nc2ccc3oc4c(c3c2)C(=O)CC(C)(C)C4)cc1C`: the survival is inactive: 86%. Regarding `COc1ccc(-c2cnc(C)o2)cc1S(=O)(=O)Nc1ccc(F)cc1F`, the survival is inactive: 121%.

Consider `COc1cc(OC)c(NC(=O)c2cn(C3CCCC3)c(=O)c3c2c2ccccc2n3C)cc1Cl`, for which the survival was inactive: 80%.

Regarding `O=C(c1ccc(Br)cc1)N(Cc1cccs1)c1ccc(F)cc1`, the survival is inactive: 99%. Under `CN1CCN(C(=O)Cn2ncc3c4ccccc4n(Cc4ccc(F)cc4)c3c2=O)CC1` stands inactive: 98%; under `COc1cc2c(cc1OC)C(COc1ccc(F)cc1)N(C(=O)c1cccc(F)c1)CC2` (centres undefined), inactive: 60%. Regarding `CN(C)CCCNC(=O)C(=O)NCC(c1ccc2c(c1)OCO2)N1CCOCC1` (centres undefined), the survival is inactive: 124%. Under `Cc1nc2nc(SCC(=O)Nc3ccccc3Cl)nn2c(C)c1Cc1ccccc1` stands active: -3%; under `CCOCCn1ccc2c(OCC(=O)Nc3cccc([N+](=O)[O-])c3)cccc2c1=O`, inactive: 128%; under `CCCOc1ccc(C2C(=O)N(C3CCCCCC3)CC(=O)N2CCC2=CCCCC2)cc1OC` (centres undefined), inactive: 123%. As to `Cc1cccn2c(=O)c(/C=C(\C#N)c3nc4ccccc4s3)c(Oc3ccc(F)cc3)nc12`, the survival is inactive: 90%. Take `Cc1cc(N(CCO)Cc2ccccc2)n2nc(-c3ccc(C(C)(C)C)cc3)nc2n1`: the survival is inactive: 85%. On to `CC(C)Cn1c(N2CCN(C(=O)c3sc4ccccc4c3Cl)CC2)nc2ccccc21`, for which the survival was inactive: 115%. Turning to `COc1cccc(C(=O)Nc2ccccc2OCc2cc(=O)n3ccccc3n2)c1`, the survival was inactive: 99%. For `Cc1noc(/C=C/c2cccs2)c1S(=O)(=O)N1CCC(C(=O)NCc2ccc(Cl)cc2)CC1`, the survival is inactive: 104%. With `COc1ccccc1CN1CCNC(=O)C1=O`, the survival was inactive: 77%. In the case of `COc1ccc(N(Cc2nnc3n2CCCCC3)C(=O)Nc2cccc(C)c2)cc1Cl`, the survival was inactive: 71%. Take `CCOc1ccc(/C=C(\C(=O)N2CCCC2)n2ccccc2=O)cc1`: the survival was inactive: 113%. For `Cn1c(=O)c2cc(C(=O)NC3CCCCCC3)sc2c2ccccc21`, the survival was inactive: 89%. With `COc1ccc(-c2coc3c2c(C)cc2oc(=O)c(CC(=O)O)c(C)c23)cc1`, the survival is inactive: 49%. Consider `COc1ccc(NC(=O)C(CC(C)C)NC(=O)C2CCCCC2)cc1` (centres undefined), for which the survival was inactive: 58%.

Turning to `CCOc1ccc(CN2CCc3nc(N4CCN(c5ccccn5)CC4)ncc3C2)cc1OC`, the survival is inactive: 129%. Consider `O=C(Cn1ncc2c3ccccc3n(Cc3ccccc3)c2c1=O)NC1CCCCCC1`, for which the survival was inactive: 120%. Regarding `Cc1ccc(C(=O)c2cn(Cc3ccccc3C)c3nc(C)ccc3c2=O)cc1`, the survival was inactive: 61%. With `Cc1ccccc1-c1cc2nccc(-c3cc(Cl)ccc3O)n2n1`, the survival was inactive: 68%.

With `COc1ccc(-c2cn3c(n2)sc2cc(C(=O)NCc4cccc(F)c4)ccc23)cc1`, the survival was inactive: 99%. The same measure for `Cc1ccc(NC(=O)Cn2c(=O)n(Cc3ccc4c(c3)OCO4)c(=O)c3ccccc32)cc1`: inactive: 87%; for `CCCc1noc(-c2ccc(NCc3ccc(C)cc3)c([N+](=O)[O-])c2)n1`: inactive: 87%. As to `Cc1oc2c(cc(NS(=O)(=O)c3ccc(Cl)cc3)c3ccccc32)c1C(=O)OCc1ccccc1`, the survival is inactive: 65%. As to `CCCc1cnc2c(c1SCc1cccc(F)c1)c(=O)n(C)c(=O)n2C`, the survival was inactive: 67%. Under `CN(Cc1ccccc1)C1CCNCC1` stands inactive: 113%; under `Cc1nc(C)c(CCNS(=O)(=O)c2ccc(F)cc2)s1`, inactive: 131%; under `Cc1ccc(NC(=O)CN2C(=O)COc3ccc(S(=O)(=O)NC4CCCC4)cc32)c(Cl)c1`, inactive: 83%. As to `COc1ccc(CNC(=O)c2cnc3sc(N4CCCC4)nn3c2=O)c(OC)c1`, the survival is inactive: 84%. Under `CCc1ccc(Nc2nnc(-n3nc(C)cc3C)c3ccccc23)cc1` stands inactive: 130%; under `CCCCNC(=O)CSc1nc2cc3c(cc2c(=O)n1CCCCCC(=O)NCc1ccc(OC)cc1)OCO3`, inactive: 63%; under `COc1ccc(CNC(=O)Cc2csc3nc(-c4ccc(F)cc4)cn23)cc1`, inactive: 68%. On to `Cc1ccccc1C(=O)NCCc1sc(-c2ccc(Cl)cc2)nc1C`, for which the survival was inactive: 143%. In the case of `NC(=O)Nc1nc2cc(Cl)cc(Cl)c2[nH]c1=O`, the survival is inactive: 113%. Take `Cc1ccccc1NC(=O)CCN1C(=O)c2ccccc2Sc2ncccc21`: the survival is inactive: 90%.

In the case of `COc1cccc(NC(=O)CCc2c(C)nc3ncnn3c2C)c1`, the survival is inactive: 73%. For `COc1ccc(C2CC(=O)N(CC(=O)Nc3ccc(C)c(Cl)c3)c3ccccc3S2)cc1OC` (centres undefined), the survival was inactive: 83%. As for `CCOc1ccc(NC(=O)C(=O)NCC(c2cccnc2)N2CCc3ccccc32)cc1` (centres undefined), the survival is inactive: 50%. For the compound `COc1ccc(-c2nc(SCC(=O)NC3CCCC3)c(-c3ccc(C)cc3)[nH]2)cc1OC`, the survival is inactive: 77%.

Take `Cc1c(C(=O)N2CCOCC2)sc(NC(=O)c2ccc3c(c2)OCO3)c1C#N`: the survival was inactive: 111%. As for `COc1ccc(N(Cc2cccs2)C(=O)Nc2cccc(Cl)c2)cc1`, the survival was inactive: 74%. Turning to `CCOC(=O)C1CCCN(S(=O)(=O)c2ccc3c(c2)oc(=O)n3C)C1` (centres undefined), the survival is inactive: 88%.

With `Cc1cn2c(=O)cc(COc3ccc(NC(=O)COc4ccccc4)cc3)nc2s1`, the survival was inactive: 140%. The same measure for `COc1cc(NC(=O)CN(c2cc(C)cc(C)c2)S(=O)(=O)c2c(C)[nH]c(=O)[nH]c2=O)cc(OC)c1`: inactive: 83%; for `C#CC(C)(CC)NC(=O)Cn1nnc(-c2ccc(OCc3c(F)cccc3Cl)cc2)n1` (centres undefined): inactive: 67%; for `Cc1cc(C)cc(C(=O)n2nc(C)c(S(=O)(=O)N3CCOCC3)c2C)c1`: inactive: 112%.

Regarding `O=C(CSc1ncc2c(n1)-c1ccccc1N(Cc1ccc(F)cc1)S2(=O)=O)NCCc1ccccc1`, the survival was inactive: 73%. In the case of `Cc1ccc(-n2c(=O)c3ccc(C(=O)NCc4ccccc4Cl)cc3n(CC(=O)Nc3ccc(C)cc3C)c2=O)cc1`, the survival was inactive: 86%. As to `CCOC(=O)c1c(NC(=O)c2ccc(F)cc2)sc2c1CCC(CC)C2` (centres undefined), the survival is active: 3%. Under `CCOC(=O)c1cccc(NC(=O)[C@H](CSCc2ccccc2)N2Cc3ccccc3C2=O)c1` stands inactive: 76%. The same measure for `Cc1ccc(Nc2cc(C)nc3nncn23)c(C)c1`: inactive: 103%.

Regarding `CCOc1ccc(-c2nc3ccccc3c(=O)o2)cc1`, the survival is inactive: 83%.

For `O=c1[nH]c(C2CCCN(S(=O)(=O)c3ccccc3)C2)nc2c1nnn2Cc1ccc(OC(F)(F)F)cc1` (centres undefined), the survival is inactive: 85%. Take `Cc1cc(C)nc(NCC(C)c2ccccc2)n1` (centres undefined): the survival was inactive: 114%. As for `O=C(C1CCC(Cn2c(=O)c3sccc3n(Cc3ccc(F)cc3)c2=O)CC1)N1CCOCC1` (centres undefined), the survival is inactive: 68%. For the compound `CN1C(=O)C2(c3ccccc31)N(c1ccc(Br)cc1)C(=O)CS2(=O)=O` (centres undefined), the survival was inactive: 73%. The same measure for `COc1ccc2c(c1)-c1nc(NC(=O)c3cc(OC)c(OC)c(OC)c3)sc1CC2`: inactive: 75%; for `Cc1cc(C)cc(Nc2nc3cc(Cl)c(Cl)cc3nc2-n2nc(C)cc2C)c1`: inactive: 81%; for `Cn1cc(-c2cc3n(n2)CCC(=O)N3CCCC(=O)NCc2ccccc2Cl)c2ccccc21`: inactive: 120%.

Regarding `CC(C)CCn1c(SCc2cccc(F)c2)nc2ccsc2c1=O`, the survival is inactive: 76%.

For `CN1C(=O)c2[nH]nc(-c3ccc(F)cc3)c2C1c1cccc(O)c1` (centres undefined), the survival was inactive: 99%. For the compound `CCc1[nH]nc2c1C1(C(=O)N(CC)c3ccccc31)C(C#N)=C(N)O2` (centres undefined), the survival was inactive: 112%. In the case of `CCOc1ccccc1C(=O)N1CCOCC1`, the survival was inactive: 124%. In the case of `CCc1ccc2oc(C(=O)NCc3ccccc3)cc(=O)c2c1`, the survival is inactive: 94%. As to `Cc1ccc(NC(=O)Cn2c(-c3nonc3N)nc3ccccc32)c(Br)c1`, the survival is inactive: 95%.

As for `O=C(O)C1CCCCC1C(=O)N1CCc2ccccc21` (centres undefined), the survival is inactive: 110%.
